PMC9554868
No constants are given. Whether binding was seen depends on the method and setting. Binding seen in cells or lysates may run through a third protein. Some binding calls cover weakened binding; strength is not graded here.

Key:
Assay in all cases: co-IP
[1] = biological target: RING finger protein 26 (RNF26), wild type, Myc-FLAG-tagged (UniProt Q9BY78)
[2] = biological target: Zaire ebolavirus (EBOV) glycoprotein GP1,2 (Zaire ebolavirus (EBOV)) (UniProt Q05320)
[3] = biological target: EBOV nonstructural soluble GP (sGP) (Zaire ebolavirus (EBOV)) (UniProt P60170)

Row | Substance | binding [1] | binding [2] | binding [3]
1 | protein disulfide isomerase family A member 3 (PDIA3/ERp57), Myc-tagged (from UniProt P30101 25-505) | no binding |  | 
2 | calreticulin (CALR), Myc-tagged (from UniProt P27797 18-417) | binds | binds | binds
